Measurements taken from publication PMC9935904.

Target: Lathyrus sativus β-L-ODAP synthase (LsBOS), N-terminal His-tag (Lathyrus sativus)

How did the pH optimum of the LsAAE3-LsBOS coupled reaction producing β-L-ODAP in vitro turn out when “Lathyrus sativus acyl-activating enzyme 3 (LsAAE3), N-terminal His-tag” was run?
The pH optimum of the LsAAE3-LsBOS coupled reaction producing β-L-ODAP in vitro was 9 pH.
